“And” between values parts separate entries of the source, which are not always exact repeats. Equal entries are not always repeated. About 2,100 (0.72%) of roughly 290,000 compounds were called active. Inconclusive means that the source gave no clear call. Such entries were picked first, then a sample of the others. The call rests on the fitted dose curve; in most records, active means well fitted inhibition curve with a large enough effect; inconclusive means small, poorly fitted or top-dose-only effect, or effect the other way; inactive means flat fitted curve, though single readings scatter. Potencies beside an inconclusive call are fits to weak or partial responses and may not hold up.
Each compound was assayed against Fructose-bisphosphate aldolase (Giardia intestinalis (strain ATCC 50803 / WB clone C6)) (UniProt A8B2U2) (assay: qHTS Assay for Inhibitors of Fructose-1,6-bisphosphate Aldolase from Giardia Lamblia). Settings: purified Giardia FBPA; activity, negative = inhibition: at 59.6 µM (top of the series) unless noted.
Chain of UniProt A8B2U2 (A8B2U2 whole entry, looked up): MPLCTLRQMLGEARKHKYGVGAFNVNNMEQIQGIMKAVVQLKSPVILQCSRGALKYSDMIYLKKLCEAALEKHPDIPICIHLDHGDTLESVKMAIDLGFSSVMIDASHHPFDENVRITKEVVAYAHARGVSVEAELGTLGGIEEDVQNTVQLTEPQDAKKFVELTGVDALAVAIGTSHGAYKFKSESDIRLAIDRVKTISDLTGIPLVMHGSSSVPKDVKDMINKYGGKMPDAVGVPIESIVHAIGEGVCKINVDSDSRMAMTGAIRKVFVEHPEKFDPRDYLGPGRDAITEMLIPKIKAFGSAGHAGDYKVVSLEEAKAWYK
In short: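 Giardia FBPA (40 nM reagent) was preincubated 10 min at RT with compound (up to 57.5 uM final), then substrate plus GAPDH/TPI/NAD/arsenate coupling system with diaphorase/resazurin was added; resorufin fluorescence (525/598 nm) was read after 20 min.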
For `CC1CN(CCOCCSc2ccc(Cl)cc2)CC(C)O1` (stereo unspecified), the Potency was inconclusive: 28.2 µM [inhibitor, partial curve]. In the case of `O=C(N/N=C(\Cc1ncc[nH]1)c1ccccc1)c1cccnc1`, the Potency was inconclusive: 17.7 µM [inhibitor, single point]. For `Cc1ccccc1-n1c(=O)n(Cc2ccco2)c(=O)c2[nH]cnc21`, the Potency was inconclusive: 20 µM [inhibitor, single point]. `COc1ccc(C2=C(Nc3ccc(C)cc3)c3ccccc3C2=O)cc1` was tested, and the “activity, negative = inhibition” value was inactive: 0.413%. With `COc1ccc(C(=O)COC(=O)c2ccccc2NS(=O)(=O)c2ccc(O)c([N+](=O)[O-])c2)cc1` the Potency was inconclusive: 15.8 µM [activator, single point]. In the case of `Cn1nnnc1SCC(=O)NCc1ccccc1`, the “activity, negative = inhibition” value was inactive: -2.81%. For `NS(=O)(=O)c1ccc(CCNCC#Cc2ccccc2)cc1`, the Potency was active: 22.4 µM. For `CCOc1ccc(C2CC(c3c(O)n(C)c(=O)n(C)c3=O)=NN2)cc1` (stereo unspecified), the Potency was inconclusive: 17.7 µM [inhibitor, partial curve]. In the case of `CC(C)=CC(=O)OCC(=O)Nc1cc(C)cc(C)c1`, the “activity, negative = inhibition” value was inactive: -3.99%. In the case of `O=C(CSc1nc2cc(Cl)ccc2o1)NCCc1ccccc1`, the “activity, negative = inhibition” value was inactive: -2.78%. In the case of `COC(=O)CC(NC(=S)NC(=O)c1ccccc1)c1ccc(Br)cc1` (stereo unspecified), the “activity, negative = inhibition” value was inactive: 7.87%. `CC(=O)c1cccc(NC(=O)CN2CCN(Cc3ccccc3)CC2)c1` was tested, and the Potency was inconclusive: 12.6 µM [inhibitor, partial curve]. In the case of `COc1ccc(C(=O)CSc2cc(C)nc3nc(C)nn23)cc1OC`, the Potency was inconclusive: 15.8 µM [inhibitor, single point]. In the case of `CSc1n[nH]c(=S)n1N`, the Potency was active: 19.9 µM. In the case of `COc1ccc(Nc2cc(Cl)nc(N)n2)cc1OC`, the Potency was inconclusive: 15.8 µM [inhibitor, partial curve]. `N#Cc1c(-c2ccc(F)cc2)nc2n(c1=O)CCS2` was tested, and the “activity, negative = inhibition” value was inactive: 3.1%. `O=C(O)c1ccc(-n2cccc2)cc1O` was tested, and the Potency was inconclusive: 17.7 µM [activator, single point]. With `NS(=O)(=O)c1ccc(NC(=S)NC2CCCC2)cc1` the Potency was inconclusive: 35.4 µM [inhibitor, single point]. In the case of `CCOC(=O)c1c(NC(=O)CSc2nnc(CNc3ccc(F)cc3)o2)sc(C(C)=O)c1C`, the “activity, negative = inhibition” value was inactive: -3.15%. In the case of `Cc1ccc(N/C(N)=N/c2nc(CSc3ccc(C)cc3)cc(=O)[nH]2)cc1`, the “activity, negative = inhibition” value was inactive: 6.74%. `CC1CCCN(C(=S)SCC(=O)c2cc(Br)cc(Br)c2O)C1` (stereo unspecified) was tested, and the “activity, negative = inhibition” value was inactive: -22%. For `N#Cc1cccc(NC(=O)N2CC3(CCN(C(=O)c4cnccn4)CC3)C2)c1`, the “activity, negative = inhibition” value was inactive: 6.18%. With `CC1=CC2=C(OC1N(C)C)c1cccc3cccc(c13)C2=O` (stereo unspecified) the Potency was inconclusive: 17.7 µM [inhibitor, partial curve]. For `Cc1ccc(NS(=O)(=O)c2cc(NC(=O)c3ccc4c(c3)NC(=O)CS4)ccc2C)c(C)c1`, the Potency was active: 15.8 µM. For `CC(=O)Nc1ccc(S(=O)(=O)NNC(=S)NCC2CCCO2)cc1` (stereo unspecified), the Potency was active: 12.6 µM. In the case of `CCN(CC)c1ccc(/C=N/Nc2nc3ccccc3[nH]2)cc1`, the Potency was inconclusive: 8.89 µM [inhibitor, partial curve]. With `Cc1cccc(C2c3[nH]c4ccccc4c3CCN2C(=O)c2ocnc2C)n1` (stereo unspecified) the Potency was inconclusive: 19.9 µM [inhibitor, partial curve]. With `COc1ccc(CN2CCN(c3ccccc3OC)CC2)cc1OC` the Potency was inconclusive: 28.2 µM [inhibitor, partial curve]. `Cc1nn(-c2ccccc2)c(Cl)c1C(=O)NC1CCCCC1` was tested, and the “activity, negative = inhibition” value was inactive: 0.662%. In the case of `Cc1c(/C=C/C(=O)c2ccc(Cl)s2)cnn1C`, the Potency was inconclusive: 15.8 µM [inhibitor, partial curve]. For `c1ccc2c(c1)Nc1nccnc1S2`, the Potency was inconclusive: 19.9 µM [inhibitor, partial curve]. In the case of `Cc1[nH]c(=S)c(C#N)c(-c2ccco2)c1C(=O)N(C)C`, the Potency was active: 19.9 µM. With `NS(=O)(=O)c1cccc(NS(=O)(=O)c2ccc(/C=C/C(=O)OCC(=O)c3ccccc3)cc2)c1` the “activity, negative = inhibition” value was inactive: 0.321%. For `Cc1cc(NC(=O)CCC(=O)N(c2ccccc2)C(C(=O)NC2CCCC2)c2ccc(F)cc2)no1` (stereo unspecified), the activity, negative = inhibition was inconclusive: 43.5% [activator]. `CCOc1ccccc1N1CCN(Cc2ccco2)CC1` was tested, and the Potency was inconclusive: 19.9 µM [inhibitor, partial curve]. For `O=C1C(Cl)=C(NCCCO)C(=O)c2ccccc21`, the Potency was inconclusive: 3.15 µM [inhibitor, full curve]. In the case of `COc1ccc(-n2c(=S)[nH]c3cc(C(=O)NCc4cccnc4)ccc3c2=O)cc1`, the Potency was inconclusive: 4.47 µM [inhibitor, partial curve]. `CC(C)C[C@@H](CC(=O)N[C@@H](CCCN)CC(=O)N[C@@H]1CCNC[C@H]1C(=O)N[C@H](CC(=O)N[C@@H](CCC(=O)O)CC(=O)O)Cc1ccccc1)NC(=O)[C@@H]1CNCC[C@H]1N` was tested, and the Potency was inconclusive: 15.8 µM [inhibitor, single point]. With `COc1ccc(C2CC(O)(c3ccccc3)Oc3cc(OC)c(OC)c(OC)c32)cc1` (stereo unspecified) the Potency was inconclusive: 5 µM [inhibitor, partial curve, poor fit] and inconclusive: 8.89 µM [inhibitor, partial curve]. `Cn1nc(C(F)(F)F)cc1-c1ccc(S(N)(=O)=O)s1` was tested, and the “activity, negative = inhibition” value was inactive: 1.74%. With `COc1ccc(-n2c(COc3ccc(C)cc3)nnc2SCC(=O)O)cc1` the Potency was inconclusive: 3.98 µM [activator, partial curve, poor fit]. In the case of `COc1ccc(-n2nc(C#N)c(Cl)cc2=O)cc1`, the “activity, negative = inhibition” value was inactive: -1.62%. In the case of `CC(C)CNCC(=O)N1c2ccccc2Sc2ccccc21`, the Potency was inconclusive: 15.8 µM [inhibitor, partial curve]. For `CCOc1ccc(C(=S)N2CCN(C)CC2)cc1`, the Potency was active: 17.7 µM. `O=C(CCCN1C(=O)/C(=C/c2ccccc2Cl)SC1=S)NNC(=O)c1ccc(Cl)cc1` was tested, and the “activity, negative = inhibition” value was inactive: 6.27%. `COc1ccc(N2C(=O)NC(NS(=O)(=O)c3ccccc3)(C(F)(F)F)C2=O)cc1` (stereo unspecified) was tested, and the “activity, negative = inhibition” value was inactive: 0.425%. `CCOC(=O)c1c(NC(C)=O)sc2c1CCN(Cc1ccccc1)C2` was tested, and the Potency was inconclusive: 15.8 µM [inhibitor, partial curve]. In the case of `Clc1cc(Cl)c(OCCCCn2cncn2)c(Cl)c1`, the Potency was inconclusive: 25.1 µM [inhibitor, partial curve]. With `COC(=O)c1ccc(OCC(O)CNC2CCCC2)cc1` (stereo unspecified) the Potency was inconclusive: 31.6 µM [inhibitor, partial curve]. With `CN(C)c1cc[n+](CC(=O)Nc2ccccc2C(F)(F)F)cc1` the “activity, negative = inhibition” value was inactive: -27.2%. With `O=C(NC(=S)Nc1cc([N+](=O)[O-])ccc1Cl)c1ccccc1` the Potency was inconclusive: 17.7 µM [inhibitor, partial curve]. With `COC/C=C/C1=CC2=CC(=O)C(C)(OC(=O)c3cnc4ccccc4n3)C(=O)C2=CN1Cc1ccc(OC)cc1` (stereo unspecified) the Potency was inconclusive: 3.97 µM [inhibitor, partial curve] and inconclusive: 1.12 µM [inhibitor, single point]. For `O=C(CS(=O)(=O)c1c[nH]c2ccccc12)Nc1ccc2c(c1)OCCO2`, the Potency was inconclusive: 25.1 µM [inhibitor, partial curve]. With `CCc1ccc(C(=O)CSc2n[nH]c(C)n2)cc1` the Potency was inconclusive: 22.4 µM [inhibitor, partial curve]. In the case of `c1ccc(CN2CCN(Cc3ccc4ccccc4c3)CC2)cc1`, the Potency was inconclusive: 15.8 µM [inhibitor, partial curve]. For `CCOc1ccccc1N1CCN(CC(=O)Nc2nc(C)c(C(=O)N(C)C)s2)CC1`, the Potency was inconclusive: 12.6 µM [inhibitor, partial curve]. `Cc1cccc(Cc2cnc(NC(=O)C3=NCCN3)s2)c1` was tested, and the Potency was inconclusive: 15.8 µM [inhibitor, partial curve]. With `Cc1nc2ccccc2c(=O)n1/N=C/c1ccc([N+](=O)[O-])o1` the Potency was inconclusive: 14.1 µM [inhibitor, partial curve]. In the case of `O=S(=O)(NCc1ccccn1)C(F)(F)F`, the Potency was active: 2.82 µM. With `C#CCOCCOCCOCCNc1nc(N2CCN(C(=O)C([C@@H](C)CC)n3cc(C(N)Cc4ccc(O)cc4)nn3)CC2)nc(N2CCN(C(=O)[C@H](CCC(=O)O)n3cc(C(N)CC(C)C)nn3)CC2)n1` (stereo partly specified) the Potency was inconclusive: 44.6 µM [inhibitor, single point]. For `NNC(=O)c1ccc(COc2cccc3ccccc23)cc1`, the “activity, negative = inhibition” value was inactive: 0.125%. With `Cc1cccc(N2CC(C(=O)Nc3nnc(SCC(=O)Nc4nccs4)s3)CC2=O)c1` (stereo unspecified) the “activity, negative = inhibition” value was inactive: -0.0494%. In the case of `CCc1ccc(C(=O)Nc2cccc(-c3nn[nH]n3)c2)s1`, the Potency was inconclusive: 28.2 µM [inhibitor, single point]. For `O=c1[nH][nH]c2cc(=O)n(-c3cccc(C(F)(F)F)c3)nc12`, the “activity, negative = inhibition” value was inactive: -2.86%. For `CCOc1ccc(C(=O)Cc2ccc3oc(C(=O)O)cc3c2)c(O)c1`, the Potency was inconclusive: 19.9 µM [activator, partial curve]. With `O=c1cc(CSc2nnc(Nc3ccccc3)s2)nc2sccn12` the Potency was inconclusive: 17.7 µM [inhibitor, partial curve]. In the case of `C=CCN1C(=O)/C(=C/c2cccs2)C(=O)NC1=S`, the “activity, negative = inhibition” value was inactive: -26%. `CC(=O)c1coc2c1cc(O)c1ccccc12` was tested, and the Potency was inconclusive: 12.6 µM [inhibitor, partial curve]. With `O=[N+]([O-])c1ccccc1N/N=C/c1c[nH]c2ccccc12` the “activity, negative = inhibition” value was inactive: -6.79%. With `Cc1ccccc1NC(=O)CSc1n[nH]c(-c2ccccn2)n1` the Potency was inconclusive: 39.8 µM [inhibitor, single point]. With `CC(Oc1ccc2c(-c3ccccc3)cc(=O)oc2c1)C(=O)N[C@H](Cc1c[nH]c2ccccc12)C(=O)O` (stereo partly specified) the Potency was inconclusive: 25.1 µM [activator, single point].
Further: nearly all actives have a fitted effect of over 55% in size.
On the % scale 0 is the no-effect control and ±100 the full control effect; potency means the concentration at half of the fitted maximal effect; tags describe the fitted curve by direction and shape.
